Results taken from paper PMC12136788.
This is one part of the list.

T1: UNK ZnF1-3 (human, UniProt Q9C0B0 31-174)
T1 sequence: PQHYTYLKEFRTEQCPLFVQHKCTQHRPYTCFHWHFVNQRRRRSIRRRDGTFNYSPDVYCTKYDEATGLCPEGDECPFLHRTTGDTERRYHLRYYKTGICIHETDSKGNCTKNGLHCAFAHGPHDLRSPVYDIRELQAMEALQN

B1: chr3:94910677:94910678:-_ENSMUSG00000028126_ENSMUST00000107236|mus_hu|FALSE|FALSE (ssRNA)
RNA: GGGAGUUCUACAGUCCGACGAUCAGCUUAAGCUGGCUGCUGGGACCUUGCGCCCAGACCAAGCCACAUCUGAAAAAAAAACGAGGCAUGAAAAGUCCCAAAGGAGCGAACGCCCCUUCUCCGUCCUUCCUAACCACGGCCUGUCAACAGAGGAUUGAGCAUCA
B2: chr9:113799110:113799111:+_ENSMUSG00000033392_ENSMUST00000111838|mus_mus|FALSE|FALSE (ssRNA)
RNA: GGGAGUUCUACAGUCCGACGAUCCAGCAGAACAAACAACCAAUCUUGAAGAUCAUCUUUGUGGACUUGUAUGAAAUCUACUAGAGUCUCCAAGAACAUGCUGAACACCUUGCCAUGAGGAUCUGCAAACAUUCUUGUGAAAAUCAACAGAGGAUUGAGCAUCA
B3: 3297105_3297225_820_CDS_ENSMUSG00000068566_ENSMUST00000164553|mouse|control|control (ssRNA)
RNA: GGGAGUUCUACAGUCCGACGAUCUGGCACGGUAGCCAUAUAGCCAGUGAUCUCACCGGGCCUUGCACGGGUCCAGGCCACUUCAGUGGCAUACGCCAAACAGGCAACGCAGGAGAAAGUGGUGGCAGCGAUGGCAUGGUCCCGCAACAGAGGAUUGAGCAUCA
B4: chr2:5814250:5814251:-_ENSMUSG00000025816_ENSMUST00000102981|mus_hu|mus_mus_mus_hu_True|1_108 (ssRNA)
RNA: GGGAGUUCUACAGUCCGACGAUCUUCCUUUCAGGCUUCUGAAUUUCUGGUAGAACUGCACAGAAUGGUUUGAUAACUUCUAAAAAUUUGAUGCCCAUGGCUGCUGCUGGGGAGGCCCAGGGGGAAACCGCGGCCUCGCAGCUGCAACAGAGGAUUGAGCAUCA
B5: 87340226_87340346_1349_CDS_ENSMUSG00000003382_ENSMUST00000170036|mouse|control|control (ssRNA)
RNA: GGGAGUUCUACAGUCCGACGAUCGGGAGUGCUAAUGGACACAGAGGGCCAGGUGGGUGAGGGGUGGGCAAACCCGGUGCCUUUCCCCUCUUCUAUGGUCCUGCUCCGCAUGCUGUCCACUUCUUGGGUCUGUUCCUCCUUUCCCAACAGAGGAUUGAGCAUCA
B6: chr3:9412954:9412955:+_ENSG00000134077_ENST00000452837|hu_mus|hu_hu_hu_mus_False|48_48 (ssRNA)
RNA: GGGAGUUCUACAGUCCGACGAUCGGUUGAUAUCUCUUCUUUGAUGGCUGGAUUUUCAUAAUAGUCCAAGAUAUGUGAAUCUGAAGUAUGGCUAGUGUGCUUUUUCUUACCAUCUUUCUCAUCUGCUUUGUCUCCUUGUCCACACAACAGAGGAUUGAGCAUCA
B7: chr8:89189611:89189612:+_ENSMUSG00000047866_ENSMUST00000034141|mus_hu|FALSE|FALSE (ssRNA)
RNA: GGGAGUUCUACAGUCCGACGAUCAAAAAGAACUUGAGAAAGGUCAAAGGCCACAUUUAGAUAAUGAUCUGUGAAGUUAUGGUUUUGUUCAGGAUCCAACACCUCAAGCAGAGCUGCUGCUGGAUCACCCUGUAGACUUUUUCCCAACAGAGGAUUGAGCAUCA
B8: 123898113_123898233_537_CDS_ENSG00000119397_ENST00000373850|human|control|control (ssRNA)
RNA: GGGAGUUCUACAGUCCGACGAUCCUCUUCCUUGAGCUGGUUGGCUUCAGCAUCCCUUAGGUUUAGCCGAGCCUCUAGCUCAGCUUCAUAGGCACUGAGAUCUCCCUGGGUCUGCUGCAAAGAUGCAUUCACCUCAUGCUGCUCCAACAGAGGAUUGAGCAUCA
B9: chr3:176740097:176740098:-_ENSG00000177565_ENST00000430069|hu_mus|hu_hu_hu_mus_True|38_68 (ssRNA)
RNA: GGGAGUUCUACAGUCCGACGAUCUGUUUUGUAUACCACAAAAGGAGGCACUUUCAGUAUCUGCAAAAGGUAUUUAAUCCUAAAACAUACUCACCUAGAGAAUAAUUCAGGAAAACAAUCUGUUACACUCUAAGACCUACUCCACAACAGAGGAUUGAGCAUCA
B10: 35209774_35209894_253_3pUTR_ENSMUSG00000031513_ENSMUST00000033910|mouse|control|control (ssRNA)
RNA: GGGAGUUCUACAGUCCGACGAUCCUCCACGACCCGGGCGGUGGCCGGGAGACCCGAGACGCGCGGCGGCGGCGGCGGCCAGACAACACCCGGAAGUGCACCCCGCUGCACUUCCGCCGGCGGCUCGCGCGGGGGCGUGGGGGCCAACAGAGGAUUGAGCAUCA
B11: chr1:110565788:110565789:+_ENSG00000168710_ENST00000369799|hu_mus|motif|central (ssRNA)
RNA: GGGAGUUCUACAGUCCGACGAUCAUUCUGUCUUUAAUGCCUGUUUCUCUGAUCAGUGGAAAGAGAGAAGUAAACAUUUCGGGUACCGGUCAUUAACACAUAACCCAUCUUUGAAGGAUCACAAGCUAGAACACGUUGAGGACUCAACAGAGGAUUGAGCAUCA
B12: 34871378_34871498_3662_3pUTR_ENSMUSG00000037503_ENSMUST00000047534|mouse|control|control (ssRNA)
RNA: GGGAGUUCUACAGUCCGACGAUCUGCCUGUAGCCUAACUGACCCAAUCCUGAUGGUGGUGGGUUUGCUUCUCCAGAGUCAAGGAGCUUACAGUUUCCAAUACUCCACAACUCUAAACUGCAAGCAGCAGCAGCCGAGGAAGGACAACAGAGGAUUGAGCAUCA
B13: chr1:66485854:66485855:+_ENSMUSG00000015222_ENSMUST00000077355|mus_hu|FALSE|FALSE (ssRNA)
RNA: GGGAGUUCUACAGUCCGACGAUCGCCUUCAGAAUGUAGUGGAUAGCCUUCAGGCACAUGAAAGGUAAAAAUGCAAUUUUUAAAAUAAUAAUACUCCAUGCAAAACAGAGCAGAGCAAAAAUAAUUGUCCAAUUGAACCCAUGUCAACAGAGGAUUGAGCAUCA
B14: chr5:135101456:135101457:-_ENSMUSG00000040731_ENSMUST00000036125|mus_mus|FALSE|FALSE (ssRNA)
RNA: GGGAGUUCUACAGUCCGACGAUCACCCAAGAGUGCACCGUCAUAAGUCAGAGCCUCCUUCAGGGAAUCCACCUCAUCAAAUUCUACAUAGCAGAACCCUUUAAAUUUGUCUGUGUCUUUGUCUCUGACUAGCCGCACACUCCGCAACAGAGGAUUGAGCAUCA

molecular target: T1, UNK ZnF1-3; test: nsRBNS (natural sequence RNA bind-n-seq); RBNS binding buffer (assumed for nsRBNS): 25 mM Tris pH 7.5, 150 mM KCl, 3 mM MgCl2, 0.01% Triton X-100, 500 ug/ml BSA, 20 U/ml SUPERase-In, 4 C; UNK is unkempt and MSI1 is Musashi-1; names of the RNAs are library labels; protein concentration not given here; high values mean tight binding

Binder	binding signal [enrichment R]
B1	1.15
B2	1.21
B3	0.658
B4	0.995
B5	0.504
B6	0.395
B7	0.891
B8	0.512
B9	0.747
B10	0.607
B11	1.03
B12	0.799
B13	2.78
B14	0.444
